# The other results are listed elsewhere or left out.
# B1: ClecSol-Fc (Cryptosporidium parvum) (protein)
# chain: CPEGWISNGEKTRCFKLVTFDRPRTFSHGFKACNDLGGTEVETRRRNGSKETNEYPVTLASVYKLSDEEAIRRTLVEQGDIHKTANGCFVGLRKYAFFRYPPGWYWIDSGSPVSVRDSEINWTSSYNASWLLRFKFPFEKCGFFDIGGLGRRPCWLIDSELSCAVCGTVAYDSGGLNPNKYSELIKQTDEIISKEPKLDLPGYNNLNCTDAWENNLSVGLCQNVSNILDSAWSSYQSSLNFPSINFNWKEDSTNEGGDQVYHNSYLDLPRYKQKKTFYWDQDPGTIPALSDEMKLIGLSAQPTYHPLDRSSSGSFESDSTESGRANEERNDTLEEMIYKQSSDSIEDILVPVTKPIFSDYSSIGRNSGVEEVYSSNVSTISSKGVVFPNTTTSSDNDFTKNNPANSSKHTSTSTTTNTTTTTTRTTTTTTTTTTTTTTTTTTTTETTTTKKSTTATKNTTTT
# Legend:
# Assay in all cases: glycan array binding signal (z-score within array); higher = stronger binding
# Settings in all cases: glycan notation: IUPAC condensed, linker removed
# GlcNAc(b1-3)Man = molecular target: GlcNAc(b1-3)Man
# How it was run: (§1)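 Negative Z-scores can be read as non-binding. The Z-score is calculated within each array and then averaged across arrays of one protein sequence at different concentrations or buffers and across linkers. Arrays, 3228 in all, were curated from the Consortium for Functional Glycomics database and kept only where the protein sequence was available.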
# [1] = molecular target: GlcNAc(b1-3)[GlcNAc(b1-4)][GlcNAc(b1-6)]GlcNAc
# How it was run: as §1
# [2] = molecular target: GlcNAc(b1-3)[GlcNAc(b1-6)]Gal(b1-4)GlcNAc
# How it was run: as §1
# [3] = molecular target: GlcNAc(b1-3)[GlcNAc(b1-6)]GalNAc
# How it was run: as §1
# [4] = molecular target: GlcNAc(b1-4)Gal(b1-4)GlcNAc
# How it was run: as §1
# GlcNAc(b1-4)GlcNAc = molecular target: GlcNAc(b1-4)GlcNAc
# How it was run: as §1
# [5] = molecular target: GlcNAc(b1-4)GlcNAc(b1-4)GlcNAc
# How it was run: as §1
# [6] = molecular target: GlcNAc(b1-4)GlcNAc(b1-4)GlcNAc(b1-4)GlcNAc(b1-4)GlcNAc
# How it was run: as §1
# [7] = molecular target: GlcNAc(b1-4)GlcNAc(b1-4)GlcNAc(b1-4)GlcNAc(b1-4)GlcNAc(b1-4)GlcNAc
# How it was run: as §1
# [8] = molecular target: GlcNAc(b1-4)[GlcNAc(b1-6)]GalNAc
# How it was run: as §1
# [9] = molecular target: GlcNAc(b1-6)Gal(b1-4)GlcNAc
# How it was run: as §1
# GlcNAc(b1-6)GalNAc = molecular target: GlcNAc(b1-6)GalNAc
# How it was run: as §1
# [10] = molecular target: GlcNAc6S(b1-3)Gal(b1-4)GlcNAc
# How it was run: as §1
# Kdn(a2-3)Gal(b1-3)GalNAc = molecular target: Kdn(a2-3)Gal(b1-3)GalNAc
# How it was run: as §1
# Kdn(a2-3)Gal(b1-3)GlcNAc = molecular target: Kdn(a2-3)Gal(b1-3)GlcNAc
# How it was run: as §1
# Kdn(a2-3)Gal(b1-4)Glc = molecular target: Kdn(a2-3)Gal(b1-4)Glc
# How it was run: as §1
# Kdn(a2-3)Gal(b1-4)GlcNAc = molecular target: Kdn(a2-3)Gal(b1-4)GlcNAc
# How it was run: as §1
# [11] = molecular target: Kdn(a2-3)Gal(b1-4)[Fuc(a1-3)]GlcNAc
# How it was run: as §1
# Kdn(a2-6)Gal(b1-4)GlcNAc = molecular target: Kdn(a2-6)Gal(b1-4)GlcNAc
# How it was run: as §1
# [12] = molecular target: Man(a1-2)Man(a1-2)Man(a1-3)Man
# How it was run: as §1
# [13] = molecular target: Man(a1-2)Man(a1-2)Man(a1-6)[Man(a1-3)]Man
# How it was run: as §1
# Man(a1-2)Man(a1-3)Man = molecular target: Man(a1-2)Man(a1-3)Man
# How it was run: as §1
# [14] = molecular target: Man(a1-2)Man(a1-3)[Man(a1-2)Man(a1-6)]Man
# How it was run: as §1
# [15] = molecular target: Man(a1-2)Man(a1-3)[Man(a1-2)Man(a1-6)]Man(a1-6)[Man(a1-2)Man(a1-2)Man(a1-3)]Man
# How it was run: as §1
# [16] = molecular target: Man(a1-2)Man(a1-3)[Man(a1-2)Man(a1-6)]Man(a1-6)[Man(a1-2)Man(a1-2)Man(a1-3)]Man(b1-4)GlcNAc(b1-4)GlcNAc
# How it was run: as §1
# [17] = molecular target: Man(a1-2)Man(a1-3)[Man(a1-6)]Man(a1-6)[Man(a1-2)Man(a1-3)]Man(b1-4)GlcNAc(b1-4)GlcNAc
# How it was run: as §1
# [18] = molecular target: Man(a1-2)Man(a1-6)[Man(a1-3)]Man(a1-6)[Man(a1-2)Man(a1-2)Man(a1-3)]Man
# How it was run: as §1
# [19] = molecular target: Man(a1-2)Man(a1-6)[Man(a1-3)]Man(a1-6)[Man(a1-2)Man(a1-2)Man(a1-3)]Man(b1-4)GlcNAc(b1-4)GlcNAc
# How it was run: as §1
# Man(a1-3)[Man(a1-6)]Man = molecular target: Man(a1-3)[Man(a1-6)]Man
# How it was run: as §1
# [20] = molecular target: Man(a1-3)[Man(a1-6)]Man(a1-6)[Man(a1-2)Man(a1-3)]Man(b1-4)GlcNAc(b1-4)GlcNAc
# How it was run: as §1
# [21] = molecular target: Man(a1-3)[Man(a1-6)]Man(a1-6)[Man(a1-3)]Man
# How it was run: as §1
# [22] = molecular target: Man(a1-3)[Man(a1-6)]Man(a1-6)[Man(a1-3)]Man(b1-4)GlcNAc(b1-4)GlcNAc
# How it was run: as §1
# [23] = molecular target: Man(a1-3)[Man(a1-6)]Man(b1-4)GlcNAc(b1-4)GlcNAc
# How it was run: as §1
# [24] = molecular target: Man(a1-3)[Man(a1-6)]Man(b1-4)GlcNAc(b1-4)[Fuc(a1-6)]GlcNAc
# How it was run: as §1
# Man(a1-6)Man = molecular target: Man(a1-6)Man
# How it was run: as §1
# Man(b1-4)GlcNAc = molecular target: Man(b1-4)GlcNAc
# How it was run: as §1
# MurNAc(b1-4)GlcNAc = molecular target: MurNAc(b1-4)GlcNAc
# How it was run: as §1
# Neu5Ac(a2-3)Gal = molecular target: Neu5Ac(a2-3)Gal
# How it was run: as §1
binder,measurement,setting,value
B1,glycan array binding signal (z-score),GlcNAc(b1-3)Man,-0.097
same,glycan array binding signal (z-score),[1],-0.066
same,glycan array binding signal (z-score),[2],0.016
same,glycan array binding signal (z-score),[3],-0.039
same,glycan array binding signal (z-score),[4],-0.054
same,glycan array binding signal (z-score),GlcNAc(b1-4)GlcNAc,5.31
same,glycan array binding signal (z-score),[5],-0.211
same,glycan array binding signal (z-score),[6],-0.176
same,glycan array binding signal (z-score),[7],0.013
same,glycan array binding signal (z-score),[8],-0.08
same,glycan array binding signal (z-score),[9],-0.166
same,glycan array binding signal (z-score),GlcNAc(b1-6)GalNAc,-0.188
same,glycan array binding signal (z-score),[10],-0.249
same,glycan array binding signal (z-score),Kdn(a2-3)Gal(b1-3)GalNAc,-0.114
same,glycan array binding signal (z-score),Kdn(a2-3)Gal(b1-3)GlcNAc,0.244
same,glycan array binding signal (z-score),Kdn(a2-3)Gal(b1-4)Glc,-0.08
same,glycan array binding signal (z-score),Kdn(a2-3)Gal(b1-4)GlcNAc,-0.05
same,glycan array binding signal (z-score),[11],-0.089
same,glycan array binding signal (z-score),Kdn(a2-6)Gal(b1-4)GlcNAc,0.075
same,glycan array binding signal (z-score),[12],-0.284
same,glycan array binding signal (z-score),[13],-0.165
same,glycan array binding signal (z-score),Man(a1-2)Man(a1-3)Man,-0.081
same,glycan array binding signal (z-score),[14],-0.033
same,glycan array binding signal (z-score),[15],-0.203
same,glycan array binding signal (z-score),[16],-0.099
same,glycan array binding signal (z-score),[17],-0.067
same,glycan array binding signal (z-score),[18],-0.145
same,glycan array binding signal (z-score),[19],-0.127
same,glycan array binding signal (z-score),Man(a1-3)[Man(a1-6)]Man,-0.292
same,glycan array binding signal (z-score),[20],-0.14
same,glycan array binding signal (z-score),[21],-0.016
same,glycan array binding signal (z-score),[22],-0.229
same,glycan array binding signal (z-score),[23],-0.001
same,glycan array binding signal (z-score),[24],-0.104
same,glycan array binding signal (z-score),Man(a1-6)Man,0.126
same,glycan array binding signal (z-score),Man(b1-4)GlcNAc,-0.06
same,glycan array binding signal (z-score),MurNAc(b1-4)GlcNAc,0.04
same,glycan array binding signal (z-score),Neu5Ac(a2-3)Gal,-0.199

# — the supplement of paper PMC8728848
